Results on 91 compounds are retold here after publication PMC4336329 (PLoS ONE, 2015).

Out of some 310,000 compounds screened, about 2,200 (0.71%) showed an effect of 50% or more. Effects have a minus sign here. This is one part of the list.

Sequence of human ether-à-go-go-related gene (hERG) potassium channel (Q12809 whole entry, looked up): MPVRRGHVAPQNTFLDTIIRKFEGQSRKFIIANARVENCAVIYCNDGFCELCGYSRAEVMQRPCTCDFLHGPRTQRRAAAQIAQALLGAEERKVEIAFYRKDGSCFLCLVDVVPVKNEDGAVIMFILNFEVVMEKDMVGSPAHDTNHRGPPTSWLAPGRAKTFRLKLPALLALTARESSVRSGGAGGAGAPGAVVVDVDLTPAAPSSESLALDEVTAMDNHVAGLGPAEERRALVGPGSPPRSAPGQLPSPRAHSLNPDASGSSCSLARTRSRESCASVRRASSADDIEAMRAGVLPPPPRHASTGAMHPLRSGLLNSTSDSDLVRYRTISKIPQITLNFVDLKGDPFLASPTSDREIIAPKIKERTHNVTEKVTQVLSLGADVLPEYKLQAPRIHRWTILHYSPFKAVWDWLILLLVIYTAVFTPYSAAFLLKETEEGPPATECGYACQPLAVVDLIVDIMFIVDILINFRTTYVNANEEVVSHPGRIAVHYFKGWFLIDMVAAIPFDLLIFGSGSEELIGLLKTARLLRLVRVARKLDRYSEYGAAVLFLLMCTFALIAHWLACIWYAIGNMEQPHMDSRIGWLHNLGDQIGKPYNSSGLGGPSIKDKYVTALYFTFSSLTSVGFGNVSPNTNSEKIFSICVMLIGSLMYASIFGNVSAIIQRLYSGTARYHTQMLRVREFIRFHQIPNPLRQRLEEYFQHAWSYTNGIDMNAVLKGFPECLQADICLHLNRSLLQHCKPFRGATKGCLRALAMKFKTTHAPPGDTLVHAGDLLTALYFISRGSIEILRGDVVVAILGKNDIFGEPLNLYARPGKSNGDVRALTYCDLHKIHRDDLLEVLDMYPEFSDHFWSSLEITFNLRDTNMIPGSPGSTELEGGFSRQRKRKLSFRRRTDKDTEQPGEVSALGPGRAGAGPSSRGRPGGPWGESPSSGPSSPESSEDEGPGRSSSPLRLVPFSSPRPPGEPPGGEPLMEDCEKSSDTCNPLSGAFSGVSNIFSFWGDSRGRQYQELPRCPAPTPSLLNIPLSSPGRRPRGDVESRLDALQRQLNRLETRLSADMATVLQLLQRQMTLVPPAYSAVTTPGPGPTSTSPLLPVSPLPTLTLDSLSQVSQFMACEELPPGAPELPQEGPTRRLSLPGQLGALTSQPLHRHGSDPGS

This test concerns the target human ether-à-go-go-related gene (hERG) potassium channel (human, UniProt Q12809). Description: primary screen, population patch clamp on CHO cells stably expressing hERG.
Regarding `Cc1ccccc1-c1nc(-c2ccc(NC(=O)c3cccs3)cc2)no1`, the “hERG current change (%, negative = inhibition) at 1uM” value came to 11.2%.
As for `Cc1c(C(=O)NC(=S)NCC(C)C)oc2ccccc12`, the “hERG current change (%, negative = inhibition) at 1uM” value stood at 15.9%.
Next, `Cc1cc(N2CCOCC2)ccc1/C=C1\NC(=O)N(Cc2ccccc2)C1=O`: 18.4%; `CCOC(=O)COc1ccccc1/C=C1/NC(=O)NC1=O`: 9.94%.
Next, `Cn1cnc(S(=O)(=O)Nc2ccc(Cl)c(C(F)(F)F)c2)c1`: 18.2%; `O=C(N/N=C/c1ccc[nH]1)c1cccc([N+](=O)[O-])c1`: 11%; `c1ccc(CNc2ncnc3c2oc2ccccc23)nc1`: 11.8%.
As for `CCOC(=O)c1c(NC(=O)c2cccs2)sc(C)c1CC`, the “hERG current change (%, negative = inhibition) at 1uM” value stood at 14.5%.
Next, `COc1ccc(NC(=O)N2CCN(S(C)(=O)=O)CC2)cc1`: 3.17%; `CCOC(=O)N1CCN(C(=O)c2ccc3c(c2)ncn3C2CCCC2)CC1`: 6.43%.
Take `COc1cc(/C=N/NC(N)=O)ccc1OCC(=O)Nc1cc(C)c(C)cc1Br`: the “hERG current change (%, negative = inhibition) at 1uM” value amounted to 19.3%.
As to `CCOC(=O)C(=CNc1ccccc1C)C(=O)OCC`, the “hERG current change (%, negative = inhibition) at 1uM” value was found to be 2.89%.
As for `O=C(Cn1nnc(-c2ccc(Cl)cc2)n1)NC1CCN(Cc2ccccc2)CC1`, the “hERG current change (%, negative = inhibition) at 1uM” value is on record as 8.02%.
For the compound `CC(C)Cc1nnc(NC(=O)CSc2nc(=O)cc(N)n2-c2ccccc2)s1`, the “hERG current change (%, negative = inhibition) at 1uM” value turned out to be 5.1%.
As for `CCN(CC)C(=O)c1ccc2c(=O)n(CCOC)c(=S)[nH]c2c1`, the “hERG current change (%, negative = inhibition) at 1uM” value is on record as -0.177%.
On to `Cc1cccc(NS(=O)(=O)c2cc(C(=O)OC(C)C(=O)NCc3ccc4c(c3)OCO4)ccc2C)c1` (stereo not shown), for which the “hERG current change (%, negative = inhibition) at 1uM” value is -0.425%.
As for `Cc1cc(/C=C2\C(=O)NC(=O)N(c3ccc(Br)cc3)C2=O)c(C)n1-c1cc(C(=O)O)cc(C(=O)O)c1`, the “hERG current change (%, negative = inhibition) at 1uM” value worked out at 7.36%.
As for `CCn1c(=O)c2c(nc3n2CCS3)n(C)c1=O`, the “hERG current change (%, negative = inhibition) at 1uM” value is given as 11.3%.
On to `COc1ccc(-n2c(=O)c3ccccc3n(CC(=O)NCc3ccco3)c2=O)cc1`, for which the “hERG current change (%, negative = inhibition) at 1uM” value is given as 14.3%.
Regarding `Cc1cccc(/C=N/n2c(C)nc3ccccc3c2=O)c1`, the “hERG current change (%, negative = inhibition) at 1uM” value is reported as 12.9%.
With `Cc1cc(NC(=O)CSc2nnc(N)s2)c([N+](=O)[O-])cc1C` the figure was 5.29%; with `CCN(CC)S(=O)(=O)c1ccc(N2CCN(C)CC2)c(NC(=O)Nc2ccccc2F)c1`, 0.899%.
On to `O=C(Nc1cc(F)cc(F)c1)c1sc(Cl)nc1-c1ccccc1`, for which the “hERG current change (%, negative = inhibition) at 1uM” value was 12.7%.
Regarding `CC(NC(=O)c1cc(COc2ccccc2)on1)c1nccs1` (stereo not shown), the “hERG current change (%, negative = inhibition) at 1uM” value amounted to 1.89%.
Consider `Cc1ccc(Cn2ccsc2=NC(=O)CCl)cc1`, for which the “hERG current change (%, negative = inhibition) at 1uM” value stood at 13.2%.
Next, `Cc1ccc(N/C=C/C(=O)c2ccc(C)cc2)cc1`: 4.34%.
For the compound `Cc1ccc(NC(=O)NCCCN2CCOCC2)cc1`, the “hERG current change (%, negative = inhibition) at 1uM” value is 9.77%.
Next, `CCC1CCCCN1C(=O)Nc1cccc(NC(=O)N2CCCCC2CC)c1` (stereo not shown): 21.6%; `COC(=O)C1=C(C)NC(C)=C(C(=O)OC)C1c1cn(-c2ccccc2)nc1-c1ccco1`: 20.1%.
Take `CCCCc1nc2sc3c(=O)n(N)cnc3c2c2c1CCC2`: the “hERG current change (%, negative = inhibition) at 1uM” value was determined as 1.19%.
Turning to `Cc1cc(-c2csc(NC(=O)c3ccc(S(=O)(=O)N(C)C)cc3)n2)c(C)n1-c1ccccc1`, the “hERG current change (%, negative = inhibition) at 1uM” value is reported as -1.99%.
For the compound `Cc1csc(=O)n1CC(=O)OCC(=O)NCc1ccc(Cl)cc1Cl`, the “hERG current change (%, negative = inhibition) at 1uM” value is 4.82%.
With `CC(/C=C/c1ccccc1)=N/NC(=O)c1nc2nc(C)cc(C)n2n1`, the “hERG current change (%, negative = inhibition) at 1uM” value is -9.25%.
For the compound `Cc1cc(NC(=O)CSCC(=O)Nc2nc3ccccc3s2)no1`, the “hERG current change (%, negative = inhibition) at 1uM” value is given as 2.74%.
In the case of `COc1ccc(C(=O)/C=C(\C)NCc2ccc3c(c2)OCO3)cc1`, the “hERG current change (%, negative = inhibition) at 1uM” value is recorded as -8.71%.
For `COC(=O)c1ccccc1NC(=O)COC(=O)c1ccco1`, the “hERG current change (%, negative = inhibition) at 1uM” value is 14.3%.
On to `COCCNC(=O)c1cccc(OC2CCN(Cc3ccc(Cl)c(F)c3)CC2)c1`, for which the “hERG current change (%, negative = inhibition) at 1uM” value stood at 5.33%.
Consider `CCN(CC(=O)Nc1ccc(C)c(F)c1)CC(=O)NC(C)(C)C`, for which the “hERG current change (%, negative = inhibition) at 1uM” value is on record as 11.7%.
Regarding `Cc1nc2ccc3[nH]snc3c2n1`, the “hERG current change (%, negative = inhibition) at 1uM” value was -1.71%.
As for `C=CCOc1ccccc1/C=N/NC(=O)c1ccc(Cl)cc1Cl`, the “hERG current change (%, negative = inhibition) at 1uM” value was 10.5%.
On to `Cc1ccc(C(=O)Nc2ccc(SC(F)F)cc2)s1`, for which the “hERG current change (%, negative = inhibition) at 1uM” value worked out at 13.7%.
`COc1ccc(NC(C)=O)cc1NC(C)C(=O)Nc1ccc(S(=O)(=O)N2CCCCC2)cc1` (stereo not shown): the “hERG current change (%, negative = inhibition) at 1uM” value came out at 0.735%.
For the compound `Cc1cccc(OC(C)C(=O)N2CCCc3ccccc32)c1` (stereo not shown), the “hERG current change (%, negative = inhibition) at 1uM” value worked out at 9.04%.
For `COc1ccc(NC(=O)c2ccc3ncsc3c2)cc1`, the “hERG current change (%, negative = inhibition) at 1uM” value was 11%.
With `Cc1ccc(CNC(=O)CCC2CCCN(Cc3cccc4c3OCO4)C2)o1` (stereo not shown) the figure was -35.6%; with `Cc1cnc(NC(=O)Cc2c[nH]c3ccccc23)s1`, 7.35%.
`COc1ccccc1-c1nc2cc3ccccc3cc2nc1-c1ccccc1OC`: the “hERG current change (%, negative = inhibition) at 1uM” value is recorded as -1.21%.
For `O=C(Nc1ccnn1C1CCN(Cc2ccccc2)CC1)c1ccccc1Cl`, the “hERG current change (%, negative = inhibition) at 1uM” value is recorded as -53.1%.
For the compound `Cc1ccc(N(CC(O)CN(C)C)S(=O)(=O)c2ccccc2)cc1.Cl` (stereo not shown), the “hERG current change (%, negative = inhibition) at 1uM” value was -62.8%.
In the case of `COc1cccc(/C=N/NC(=O)c2nnn(-c3nonc3N)c2-c2cccs2)c1`, the “hERG current change (%, negative = inhibition) at 1uM” value was determined as 13.5%.
As to `CC(=O)Nc1ccc(C(=O)NCCN2CCOCC2)cc1`, the “hERG current change (%, negative = inhibition) at 1uM” value is on record as 16.6%.
Consider `CC(OC(=O)c1cccs1)C(=O)NCc1ccccc1` (stereo not shown), for which the “hERG current change (%, negative = inhibition) at 1uM” value is reported as 12.8%.
`CCN(CC)S(=O)(=O)c1cc(NC(=O)c2ccc(-n3cncn3)c([N+](=O)[O-])c2)ccc1C`: the “hERG current change (%, negative = inhibition) at 1uM” value was 16.9%.
Next, `CCOC(=O)N1CCN(Cc2ccccn2)CC1.O=C(O)C(=O)O`: 15.8%; `COc1cccc(C(=O)NNC(=O)Cc2cccs2)c1`: 11.4%; `O=C1CCC(=O)N1OCCCOc1ccccc1`: 9.04%.
As to `c1ccc2c(N3CCCCC3)nc(N3CCOCC3)nc2c1`, the “hERG current change (%, negative = inhibition) at 1uM” value is given as -7.24%.
Next, `O=C1CN(C(=O)COc2c(Cl)cccc2Cl)c2ccccc2N1`: -16.7%.
In the case of `CC1NC(=O)c2ccccc2-n2c1nc1cc(F)ccc1c2=O` (stereo not shown), the “hERG current change (%, negative = inhibition) at 1uM” value came to 11.2%.
With `COc1cccc(C(=O)C2CCCN(Cc3cccc(OCCO)c3)C2)c1` (stereo not shown) the figure was -9.73%; with `CC1(c2nnc(-c3ccncc3)o2)CC(c2ccc(F)cc2)=NO1` (stereo not shown), 1.53%; with `Cc1cc(C(=O)NNC(=O)c2cccc(S(=O)(=O)N3CCOCC3)c2)c2ccccc2n1`, 9.94%.
For the compound `COc1cccc(CN(C(=O)c2ccccc2Br)C2CCS(=O)(=O)C2)c1` (stereo not shown), the “hERG current change (%, negative = inhibition) at 1uM” value is recorded as 31%.
With `CC(Sc1nnc(Nc2ccccc2F)s1)C(=O)NC1CC1` (stereo not shown), the “hERG current change (%, negative = inhibition) at 1uM” value amounted to 3%.
Turning to `c1ccc(C2=Nc3cccnc3C(c3ccccc3)=NN2)cc1`, the “hERG current change (%, negative = inhibition) at 1uM” value was 16.8%.
`Cc1ccc(NC(=O)CSc2nnc(-c3cccnc3)n2-c2ccc(C)cc2)cc1`: the “hERG current change (%, negative = inhibition) at 1uM” value is 2.22%.
Regarding `Cc1cccn2cc(CNC(=O)c3ccco3)nc12`, the “hERG current change (%, negative = inhibition) at 1uM” value is 1.48%.
Regarding `O=C(COc1ccc(Cl)cc1Cl)NN=C1CCCCC1`, the “hERG current change (%, negative = inhibition) at 1uM” value was 3.18%.
Consider `CCCCC(=O)Nc1ccc(NC(=O)C(C)C)cn1`, for which the “hERG current change (%, negative = inhibition) at 1uM” value is reported as 15.1%.
Consider `CCOC(=O)c1c(NC(=O)CSc2nnc3ccccn23)sc2c1CCC2`, for which the “hERG current change (%, negative = inhibition) at 1uM” value was -5.62%.
Regarding `Cc1ccc(CNC(=O)COc2cc(O)c3c(c2)OC(C)(C)CC3=O)cc1`, the “hERG current change (%, negative = inhibition) at 1uM” value was 8.7%.
Turning to `O=C(CSc1nnc(-c2cccc(F)c2)o1)Nc1nncs1`, the “hERG current change (%, negative = inhibition) at 1uM” value is given as 10.7%.
Regarding `CCOC(=O)C1CCCN(Cc2ccc(O)c(OC)c2)C1` (stereo not shown), the “hERG current change (%, negative = inhibition) at 1uM” value was 0.0293%.
On to `O=C(CN1CCN(Cc2ccc(F)cc2Cl)C1=O)NCc1cccs1`, for which the “hERG current change (%, negative = inhibition) at 1uM” value was 7.47%.
Consider `O=c1cc(CN2CCN(Cc3ccccc3)CC2)c2ccc(O)cc2o1`, for which the “hERG current change (%, negative = inhibition) at 1uM” value is recorded as -79.7%.
On to `N#Cc1ccc(NC(=O)Nc2cccc(C#N)c2)cc1`, for which the “hERG current change (%, negative = inhibition) at 1uM” value worked out at 9.2%.
Next, `CCC(c1nnc(SCc2nc3ccccc3s2)n1Cc1ccccc1)N(C)C` (stereo not shown): -16.6%; `COc1ccccc1NS(=O)(=O)c1cccc(NC(=O)NCCCl)c1`: 1.29%; `Cc1cccc(C(=O)NNS(=O)(=O)c2ccc(F)cc2)c1O`: 11.4%.
As for `O=C(/C=C/c1ccc([N+](=O)[O-])cc1)NCc1cccnc1`, the “hERG current change (%, negative = inhibition) at 1uM” value is reported as -14.4%.
For the compound `O=C(Nc1ccc(NC(=O)c2ccco2)nc1)c1cccnc1`, the “hERG current change (%, negative = inhibition) at 1uM” value was 6.22%.
For `COCC(=O)N(Cc1cc2cc(C)ccc2[nH]c1=O)c1ccccc1`, the “hERG current change (%, negative = inhibition) at 1uM” value was determined as 12.3%.
With `Cc1ccc(NC(=S)NC(=O)C2CC2)c(C)c1` the figure was 20%; with `CC(=O)Nc1ccc(C(=O)CSc2nnnn2C)cc1`, 14%; with `CCOc1ccc(NC(=O)c2cccc3c2C(=O)N(CC2CCCO2)C3)cc1` (stereo not shown), 8.11%.
Consider `O=C(C1CCCN(S(=O)(=O)c2ccc(F)cc2)C1)N1CCCCCC1` (stereo not shown), for which the “hERG current change (%, negative = inhibition) at 1uM” value is on record as -3.8%.
`Cc1cccc(NS(=O)(=O)c2cc([N+](=O)[O-])ccc2C)n1`: the “hERG current change (%, negative = inhibition) at 1uM” value stood at 10.5%.
Consider `Cc1c(C(=O)N(C)c2ccc(Cl)cc2)cnn1-c1ccccc1`, for which the “hERG current change (%, negative = inhibition) at 1uM” value was 16.5%.
Turning to `COC(=O)c1cnc(N2CCCN(S(=O)(=O)c3ccc(C(F)(F)F)cc3)CC2)nc1C(F)(F)F`, the “hERG current change (%, negative = inhibition) at 1uM” value was determined as 13.7%.
On to `Cc1oc2c(CN3CCCC3)c(O)ccc2c(=O)c1-c1ccc(Cl)cc1`, for which the “hERG current change (%, negative = inhibition) at 1uM” value is given as 8.71%.
Take `COc1ccc(Cc2n[nH]c(=S)n2Cc2ccccc2)cc1Cl`: the “hERG current change (%, negative = inhibition) at 1uM” value is listed as 4.75%.
